# According to US20240132593A1 (published 2024):
# T1: immunoglobulin gamma Fc receptor 1 (FcγR1) (biotinylated, AlphaLisa binding kit Perkin Elmer #AL3081C) (UniProt P12314 16-288, biotinylated (sites not given))
# T1 chain: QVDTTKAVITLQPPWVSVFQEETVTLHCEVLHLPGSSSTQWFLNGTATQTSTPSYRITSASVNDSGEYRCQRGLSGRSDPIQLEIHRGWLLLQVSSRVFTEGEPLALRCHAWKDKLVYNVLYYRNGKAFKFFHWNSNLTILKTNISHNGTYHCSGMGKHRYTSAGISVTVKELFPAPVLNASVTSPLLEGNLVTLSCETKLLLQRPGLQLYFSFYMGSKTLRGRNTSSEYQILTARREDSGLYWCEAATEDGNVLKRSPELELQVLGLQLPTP
# Assays:
# [1] = biological target: T1, immunoglobulin gamma Fc receptor 1 …; assay: AlphaLISA FcγR1 binding assay
# [2] = biological target: T2, FcRn receptor (biotinylated, AlphaLisa binding kit Perkin Elmer #AL3095C) (UniProt P55899 in part; P61769 in part, biotinylated (sites not given)); assay: AlphaLISA FcRn binding assay
# [3] = biological target: T2, FcRn receptor (biotinylated, AlphaLisa …); assay: AlphaLISA FcRn binding assay; remark: listed apart in the source
# [4] = biological target: T1, immunoglobulin gamma Fc receptor 1 …; assay: AlphaLISA FcγR1 binding assay
EC50 [1],EC50 [2],EC50 [3] [nM],EC50 [4],Binder
48 nM and 7.23 µg/mL,11.8 nM and 1.76 µg/mL,–,–,Antibody No. 173.4 (antibody) light: DIQMTQSPSSLSASVGDRVTITCQASQDITNYLTWYQQKPGNAPKLLIYDASNLETGVPSRFSGSGSGTDFTFTINSLQPEDVATYFCQQYDNLPTFGGGTKVEIKRTVAAPSVFIFPPSDEQLKSGTASVVCLLNNFYPREAKVQWKVDNALQSGNSQESVTEQDSKDSTYSLSSTLTLSKADYEKHKVYACEVTHQGLSSPVTKSFNRGEC heavy: QLQLQESGPGLVKPSETLSLTCIVSGGSISSSGYYWGWIRQPPGKGLEWIGSIFYSGNTHYNPSLKSRVTIPVDTSKNQFSLKLSSVTAADSAVYYCARRDILTGPFDYWGQGTLVTVSSAASTKGPSVFPLAPCSRSTSESTAALGCLVKDYFPEPVTVSWNSGALTSGVHTFPAVLQSSGLYSLSSVVTVPSSSLGTKTYTCNVDHKPSNTKVDKRV[human IgG4 Fc not listed]
–,–,6.1,9.7 nM and 1.46 µg/mL,Ab No. 246.4 (WT) (antibody) chain 1: MGWSCIILFLVATATGVHSQVQLQESGPGLVKPSETLSLTCTVSGGSISSYYWSWIRQPPGKGLEWIGYIYYSGSTNYNPSLKSRVTISVDTSKSQFSLKLSSVTAADTAVYYCARDIPAFAFDIWGQGTMVIVSSASTKGPSVFPLAPCSRSTSESTAALGCLVKDYFPEPVTVSWNSGALTSGVHTFPAVLQSSGLYSLSSVVTVPSSSLGTKTYTCNVDHKPSNTKVDKRV[human IgG4 Fc with S228P (EU numbers) not listed] chain 2: MGWSCIILFLVATATGVHSEIVLTQSPATLSLSPGERATLSCRASQSVSYYLAWYQQKPGQAPRLLIYDAFNRATGIPARFSGSGSGTDFTLTISSLEPEDFAVYYCQQRINWPLTFGGGTKVEIKRTVAAPSVFIFPPSDEQLKSGTASVVCLLNNFYPREAKVQWKVDNALQSGNSQESVTEQDSKDSTYSLSSTLTLSKADYEKHKVYACEVTHQGLSSPVTKSFNRGEC

# Several values for one entry are separate records, joined by “and”; a condition that tells them apart may be missing. Equal entries are not always repeated. Where two headings read alike, the source gives them in different places.
